{
  "source": "PubChem BioAssay AID686978",
  "about": "(National Center for Advancing Translational Sciences (NCATS), 2013)",
  "note": "The campaign covered roughly 420,000 compounds. About 64,000 (15%) were called active. This list was built around the results that the source calls inconclusive (neither active nor inactive); the mix of calls is not that of the screen. The call rests on the fitted dose curve; in most records, active means well fitted inhibition curve with a large enough effect; inconclusive means small, poorly fitted or top-dose-only effect; inactive means flat fitted curve, though single readings scatter. No potency is given beside an inconclusive call; the fits are too rough. On the % scale 0 is the no-effect control and ±100 the full control effect; potency means the concentration at half of the fitted maximal effect; tags describe the fitted curve by direction and shape.",
  "data": [
    {"experiment": "qHTS for Inhibitors of human tyrosyl-DNA phosphodiesterase 1 (TDP1): qHTS in cells in absence of CPT; further: nearly all actives have a fitted effect of over 55% in size", "settings": "DT40 Tdp1-/- hTDP1 cells, no CPT, ATP luminescence, 48 h; activity change, negative = growth inhibition: at 46.2 µM (top of the series) unless noted", "procedure,_shortened": "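A cellular qHTS used chicken DT40 cells lacking endogenous Tdp1 but carrying stably transfected human TDP1. Compounds were applied without camptothecin, and cell growth kinetics were judged by ATP-dependent luminescence after ≥48 hr.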", "values": [
      {"molecule": "CN1C(=O)c2ccccc2Sc2ccc(NC(=O)NCc3ccccc3Br)cc21", "Potency": "active: 20.6 µM"},
      {"molecule": "CC(=O)c1ccc(NC(=O)c2ccc(CNc3c(N4CCOCC4)c(=O)c3=O)cc2)cc1", "Potency": "inactive"},
      {"molecule": "O=C(C1CCCN(S(=O)(=O)c2cccs2)C1)N1CCN(c2ccccc2F)CC1", "note": "(stereo not given)", "Potency": "active: 14.6 µM"},
      {"molecule": "O=C(CCN1CCCCC1)c1cccc(Cl)c1", "Potency": "inconclusive [inhibitor, partial curve, poor fit]"},
      {"molecule": "COc1cc(OC)cc(-c2cc(NC(C)=O)n[nH]2)c1", "Potency": "inconclusive [inhibitor, single point]"},
      {"molecule": "Cc1ccc(CN(Cc2cccn2-c2nnc(N3CCCC3=O)s2)C(=O)Nc2cc(C)cc(C)c2)cc1", "Potency": "inconclusive [inhibitor, partial curve]"},
      {"molecule": "Cc1[nH]n(-c2ccccc2)c(=O)c1/C=N/NC(=O)c1cccc(F)c1", "Potency": "active: 4.11 µM"},
      {"molecule": "Cc1ccccc1OCC(=O)NC(C)c1ccccc1", "note": "(stereo not given)", "activity change, negative = growth inhibition": "inconclusive: -32.8% [inhibitor]"},
      {"molecule": "CC(=O)c1cc(CN2CCC(C(=O)Nc3ccc(-n4nc(C)cc4C)cc3)CC2)cs1", "Potency": "inconclusive [inhibitor, single point]"},
      {"molecule": "Brc1cnc2nc(SCc3nc4ccccc4[nH]3)[nH]c2c1", "Potency": "inactive"},
      {"molecule": "CCC(C)(C)NC(=O)C(c1ccc(OC)cc1)N(C(=O)CCC(=O)Nc1cc(C)on1)c1ccc2c(c1)OCO2", "note": "(stereo not given)", "Potency": "inconclusive [inhibitor, single point]"},
      {"molecule": "COc1ccc(-c2nc3c(c(SCC(=O)Nc4cc(C)cc(C)c4)n2)Cc2c(CO)cnc(C)c2O3)cc1", "Potency": "inactive"},
      {"molecule": "COc1ccccc1N1CCN(S(=O)(=O)c2ccc([N+](=O)[O-])cc2)CC1", "Potency": "inconclusive [inhibitor, single point]"},
      {"molecule": "COc1ccc(C(CNC(=O)c2cc(S(=O)(=O)NCc3ccccc3)ccc2C)N2CCOCC2)cc1", "note": "(stereo not given)", "Potency": "inactive"},
      {"molecule": "N#CCn1c(C2CCCCC2)nc2ccccc2c1=O", "Potency": "inconclusive [inhibitor, single point]"},
      {"molecule": "O=C(NCc1ccccc1)C12CN(Cc3ccccc3)CC1C(c1ccc([N+](=O)[O-])cc1)=NO2", "note": "(stereo not given)", "Potency": "inconclusive [inhibitor, single point]"},
      {"molecule": "O=C(Nc1nnc(SCc2ccc(F)cc2)s1)C1CC(=O)N(Cc2ccccc2)C1", "note": "(stereo not given)", "Potency": "inconclusive [inhibitor, single point]"},
      {"molecule": "CCc1ccc(N2CCN(C(=O)c3ccc(OC)c(OC)c3)CC2)cc1", "Potency": "active: 13 µM"},
      {"molecule": "COc1ccc(NC(=O)C2CCCN2C(=O)Oc2ccccc2)cc1", "note": "(stereo not given)", "Potency": "inactive"},
      {"molecule": "CCN(CC)Cc1cc2[nH]c3c4ccc(Cl)cc4ncc3c2cc1OC", "Potency": "active: 5.01 µM"},
      {"molecule": "CCN(CC)S(=O)(=O)c1ccc(O)c(NC(=O)COc2ccc(S(=O)(=O)N3CCOCC3)cc2)c1", "Potency": "inconclusive [inhibitor, single point]"},
      {"molecule": "CCc1cccc(N(C(=O)c2csnn2)C(C(=O)NC2CCCCC2)c2ccncc2)c1", "note": "(stereo not given)", "Potency": "inactive"},
      {"molecule": "Cc1ccc(CN(Cc2ccco2)C(=O)c2ccccc2Cl)o1", "Potency": "inconclusive [inhibitor, single point]"},
      {"molecule": "N#CC(c1cccc([N+](=O)[O-])c1)C(CC(=O)c1ccccc1)c1ccccc1", "note": "(stereo not given)", "Potency": "active: 23.1 µM"},
      {"molecule": "Cc1ccc(C)c(OCCOCCN2CC(C)OC(C)C2)c1C", "note": "(stereo not given)", "Potency": "inconclusive [inhibitor, single point]"},
      {"molecule": "CC1(C)CC(=O)C=C(c2n[nH]nc2-c2ccccc2)C1", "Potency": "inactive"},
      {"molecule": "CN(C)C(=O)N1CCN(S(=O)(=O)c2ccc3ccccc3c2)CC1", "Potency": "inconclusive [inhibitor, single point]"},
      {"molecule": "CCCn1c(CCC(=O)O)ccc1-c1ccc(OC)cc1", "Potency": "inactive"},
      {"molecule": "O=C(OCc1ccc(F)cc1)c1ccc2c(c1)-c1ccccc1C2=O", "Potency": "inconclusive [inhibitor, single point]"},
      {"molecule": "O=C(NCCc1cccs1)c1ccc(CS(=O)Cc2cccc(Cl)c2)o1", "note": "(stereo not given)", "Potency": "inconclusive [inhibitor, single point]"},
      {"molecule": "COc1ccc(C=C2C=C(C(C)(C)C)C(=O)C(C(C)(C)C)=C2)cc1OC", "Potency": "active: 7.31 µM"},
      {"molecule": "CC(=O)c1ccc(NC(=O)c2cn(C)c(=O)c3ccccc23)cc1", "Potency": "inconclusive [inhibitor, single point]"},
      {"molecule": "COCCNc1nc(NCc2ccccc2)c2cnn(C)c2n1", "Potency": "inconclusive [inhibitor, single point]"},
      {"molecule": "Cc1ccc(-c2csc(N3CCN(c4cc5c(cc4Cl)nc(-c4ccncc4)n5CCOCCO)CC3)n2)cc1", "Potency": "active: 29.1 µM"},
      {"molecule": "CCn1c(SCC(=O)NCc2ccco2)nnc1-c1ccc(N(C)C)cc1", "Potency": "inactive"},
      {"molecule": "CC(=O)c1c(C)[nH]c(C(=O)CN2C(=O)NC(C)(c3ccc4c(c3)OCO4)C2=O)c1C", "note": "(stereo not given)", "Potency": "inconclusive [inhibitor, partial curve, poor fit]"},
      {"molecule": "O=C(NCc1cccc(Cl)c1)c1ccc2c(c1)nc1n2CCOC1", "Potency": "inconclusive [inhibitor, single point]"},
      {"molecule": "Cc1ccc(C(=O)NC2CC(C)(C)NC(C)(C)C2)cc1Cl", "Potency": "inactive"},
      {"molecule": "C=CCOc1ccc(/C=C/C(=O)OC(C)C(=O)Nc2ccc(NC(C)=O)cc2)cc1", "note": "(stereo not given)", "Potency": "inactive"},
      {"molecule": "Cc1ccc(C(=O)N2CCC(C(=O)c3ccc(F)cc3)CC2)cc1", "Potency": "inconclusive [inhibitor, single point]"},
      {"molecule": "CC1Cc2ccccc2N1C(=O)CSc1nnnn1Cc1ccccc1", "note": "(stereo not given)", "Potency": "inconclusive [inhibitor, single point]"},
      {"molecule": "O=C(N/N=C/c1ccc(-c2ccc([N+](=O)[O-])cc2)o1)C(O)c1ccccc1", "note": "(stereo not given)", "Potency": "inconclusive [inhibitor, single point]"},
      {"molecule": "Cc1ccc(CNC(=O)CCCCCNC(=O)N2CCn3c2nc2ccccc23)cc1", "Potency": "inconclusive [inhibitor, single point]"},
      {"molecule": "COc1ccc2ccccc2c1CN1CCN(Cc2ccccc2)CC1", "Potency": "inconclusive [inhibitor, single point]"},
      {"molecule": "c1cnc2nc(-c3ccc4c(c3)OCO4)cn2c1", "Potency": "inconclusive [inhibitor, single point]"}
    ]}
  ]
}
